From the supplement of paper PMC7826260
The list shows a part of the results. Cleavage of a single-stranded DNA pool by Rep nickase domains was read by sequencing (1 h at 37 °C, 3 µM enzyme); the outer parts of the 90-letter strands are left off. A value is the log2 ratio of uncut reads to the pool without enzyme; strong cutting gives strongly negative numbers. There is no active / inactive call. Counts are relative to all reads; uncut strands gain when others are lost, and binding without cutting may add a little.

test system: T1, Rep nickase domain of tomato golden mosaic virus; assay: uncleaved DNA left, log2 of reads against the no-enzyme library (log2 ratio); higher = less cleavage (more negative = more Rep cleavage of the k-mer); sequences stand for … in CTCGTCCG…ACCGGAGA
T1 sequence (residues 1-124, tag not shown): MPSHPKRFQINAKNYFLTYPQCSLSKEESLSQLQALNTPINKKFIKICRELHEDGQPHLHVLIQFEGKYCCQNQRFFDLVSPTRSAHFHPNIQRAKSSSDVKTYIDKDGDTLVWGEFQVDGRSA
Experimental: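 A pool of 90-nt single-stranded DNAs with seven random bases just before the constant AC of the nick site (name = the seven bases) was cut by 3 µM recombinant His6-SUMO-tagged Rep nickase domain (300 nM DNA, 50 mM HEPES pH 8.0, 50 mM NaCl, 1 mM MnCl2, 1 h, 37 °C, three replicates). Uncut DNA was amplified and sequenced.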

| Sequence | uncleaved DNA left (log2) |
| --- | --- |
| GAAGTCC | 0.0388 |
| CGCCGGA | -0.0708 |
| CATAACA | -0.0468 |
| CGGGGCG | -0.109 |
| GGAAGAT | 0.187 |
| AGGGTGC | -0.0469 |
| GCCCTCC | 0.0349 |
| ACCCGAG | 0.14 |
| ACAGACG | 0.17 |
| TCACCGA | -0.0248 |
| GTAGACG | 0.0525 |
| TTTGATA | -0.102 |
| CTTAGCA | -0.107 |
| CATCAGG | 0.271 |
| CGTATTT | 0.063 |
| CACTCAC | -0.303 |
| GACATCA | 0.0986 |
| CCTATTG | -0.11 |
| TACGGGA | 0.052 |
| CTTCTGG | 0.0433 |

| Sequence | uncleaved DNA left (log2) |
| --- | --- |
| CGCCCAC | -0.0668 |
| GCATCAC | 0.0561 |
| GGAGCGG | 0.0928 |
| AAAACTA | 0.0607 |
| TCCAGGA | 0.0972 |
| CAGGAAA | 0.157 |
| TCCTTAT | -0.119 |
| CAGCATC | 0.000794 |
| GTACTAG | 0.137 |
| CATACCT | -0.14 |
| TCCTATC | -0.0238 |
| GGCATAA | -0.0416 |
| AGGATCC | -0.0357 |
| AATAACA | -0.0464 |
| GCAGTCG | 0.0463 |
| TCCCGTA | 0.0127 |
| GTGCACC | 0.0858 |
| TGAAGGA | -0.049 |
| CGGTTGC | -0.111 |
| GGCTAGA | 0.131 |
